Experimental data published in patent publication US9290476B2, “Methylene linked quinolinyl modulators of RORγt” (Janssen Pharmaceutica NV, priority 2012, dated 2016).
For part of its entries the source gives two or more results. Only these are listed. The source may hold further records. Values given together appear to be repeats on other runs, samples or individuals.

Biological target: human RORγt LBD (Homo sapiens (Human), UniProt P51449)
Assay: RORγt reporter assay (GAL4-RORγt LBD luciferase in HEK293T cells)
Assay type: cell-based
Settings: 24 hours compound treatment
Description: A reporter assay was used to test functional activity of RORγt modulatory compounds on transcriptional activation driven by the RORγt LBD. Cells used in the assay were co-transfected with two constructs. The first construct, pBIND-RORγt LBD, contained the wild type human RORγt LBD fused to the DNA binding domain of the GAL4 protein. The second construct, pGL4.31 (Promega Cat no. C935A), contained multiple GAL4 responsive DNA elements upstream of firefly luciferase. […] The mutant construct was called pBIND-RORγt-AF2.
The pBIND vector contains the GAL4 DNA Binding Domain (GAL4 DBD) and the renilla luciferase gene under control of the SV40 promoter. […]
The reporter assay was performed by transiently transfecting HEK293T cells with 5 ng of pBIND-RORγt LBD or pBIND-RORγt LBD-AF2 and 5 μg pGL4.31 (Promega Cat no. C935A) using Fugene 6 ([…] Cat no. E2691) at a 1:6 ratio of DNA: Fugene 6 in a T-75 flask in which cells were at least 80% confluent. […] Dual Glo Luciferase Reagent (50 μL/well) was then added and firefly luciferase luminescence was read on an Envision after a ten minute incubation. Finally, Stop and Glo reagent (50 μL/well) was added and renilla luciferase luminescence was read on an Envision after a ten minute incubation. To calculate the effect of compounds on RORγt activity, the ratio of firefly to renilla luciferase was determined and plotted against compound concentration. […]

Chain of human RORγt LBD (P51449 258-518): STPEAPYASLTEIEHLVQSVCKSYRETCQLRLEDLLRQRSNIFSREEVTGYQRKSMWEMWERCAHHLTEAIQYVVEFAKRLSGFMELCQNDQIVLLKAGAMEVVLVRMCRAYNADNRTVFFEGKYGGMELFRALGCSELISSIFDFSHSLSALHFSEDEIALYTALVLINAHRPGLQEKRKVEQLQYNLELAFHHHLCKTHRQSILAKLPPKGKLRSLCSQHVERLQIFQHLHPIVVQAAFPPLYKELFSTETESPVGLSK

IC50: 5 nM and ~0.1 nM [one cell]
Structure (SMILES): COc1nc2ccc(C(O)(c3cnnn3C)c3cnc(C)n3C)cc2c(C#N)c1Cc1ccc(C(F)(F)F)cc1 (single isomer, unassigned) [Example 81C, 6-((1,2-Dimethyl-1H-imidazol-5-yl)(hydroxy)(1-methyl-1H-1,2,3-triazol-5-yl)methyl)-2-methoxy-3-(4-(trifluoromethyl)benzyl)quinoline-4-carbonitrile]
